The list shows a part of the results. At the low end of the ranking, values are background and their order means little.

The target of the experiment is SIX1 homeodomain (reference allele) (UniProt Q15475). The experiment is described as follows: universal protein binding microarray. Particulars: Universal all-10-mer PBM (8x60K, AMADID 030236), 300 nM GST-tagged protein, Alexa Fluor 488 anti-GST; buffer, salt, pH and temperature not stated; high values mean tight binding; most listed sequences are background and not binding sites; double strand, one strand shown.
Consider TTCTTAAA, for which the binding signal is -0.0269 E-score.

Regarding CCTAATAC, the binding signal was determined as 0.254 E-score.

Regarding ACACCCCT, the binding signal was 0.327 E-score.

Consider TTAGCGAA, for which the binding signal is -0.196 E-score.

Take ATATAAGG: the binding signal was determined as 0.189 E-score.

With GAAGCGGC, the binding signal was -0.0272 E-score.

Turning to ATTCAAGC, the binding signal is -0.0462 E-score.

Regarding GTCGGCAC, the binding signal is -0.218 E-score.

For the sequence GGGTTGAC, the binding signal is -0.156 E-score.

On to AATGAAAT, for which the binding signal is -0.254 E-score.

Consider CCTTGAGA, for which the binding signal was 0.128 E-score.

As for GCCTTAGC, the binding signal was -0.177 E-score.

For the sequence ACTGCGGA, the binding signal amounted to 0.0276 E-score.

GCGCCAAA: the binding signal was -0.147 E-score.

In the case of GCTACAAA, the binding signal was -0.0861 E-score.

With ACCCTCGT, the binding signal is 0.0137 E-score.

For the sequence TAGGTACA, the binding signal is -0.168 E-score.

On to CGAGCAAG, for which the binding signal was -0.248 E-score.

As for ACTCAGAG, the binding signal was -0.0934 E-score.

In the case of TCCGGCGA, the binding signal worked out at 0.135 E-score.

Turning to CTGGGCAA, the binding signal was -0.156 E-score.

Turning to GGCTGCAA, the binding signal came out at 0.0317 E-score.

CGACTCCG: the binding signal is -0.24 E-score.

Consider AATGGCAG, for which the binding signal is -0.268 E-score.

For AGTATAGC, the binding signal was 0.129 E-score.

Take CACTATAG: the binding signal is 0.101 E-score.

With AGGAAATG, the binding signal was -0.142 E-score.

As for GCTCTGGA, the binding signal is -0.00988 E-score.

Regarding GACCCAAA, the binding signal was -0.176 E-score.

Take CCTCACCC: the binding signal was -0.131 E-score.

Take GCCCGACC: the binding signal turned out to be 0.00164 E-score.

Consider CAAGGTGA, for which the binding signal is -0.0241 E-score.

AACCAATA: the binding signal is 0.128 E-score.

As for AGACGTAA, the binding signal is -0.127 E-score.

On to GGCCGATA, for which the binding signal came to 0.291 E-score.

Regarding GCCAAACC, the binding signal was -0.0893 E-score.

As for CAATTGGG, the binding signal is -0.137 E-score.

Turning to AACTAAGG, the binding signal was -0.155 E-score.

Take AGACGTGG: the binding signal was 0.034 E-score.

As to AGGAAGAT, the binding signal was found to be 0.158 E-score.

For the sequence ATAAATTC, the binding signal was -0.104 E-score.

On to AATGACTA, for which the binding signal is -0.199 E-score.

With GCCCGAAC, the binding signal was -0.359 E-score.

Take CTCCAGAA: the binding signal came out at 0.00752 E-score.

With ACGACACT, the binding signal worked out at 0.0592 E-score.

As to ACATAATG, the binding signal is -0.0955 E-score.

Take CAACCGTC: the binding signal was -0.249 E-score.

As to TCGTCCAA, the binding signal is -0.171 E-score.

In the case of CATAAGCA, the binding signal is -0.0887 E-score.

With GCGGCTTA, the binding signal was -0.214 E-score.

With AGTGTTGC, the binding signal is -0.235 E-score.

For ACTACGCC, the binding signal is -0.254 E-score.

On to CAAATTAC, for which the binding signal was -0.138 E-score.

AGTGTCCG: the binding signal is 0.0243 E-score.

In the case of AGAGAACG, the binding signal was -0.0614 E-score.

As for CCCATCAG, the binding signal was -0.023 E-score.

Take CCGCTGCC: the binding signal is -0.154 E-score.

Take ATACCGTC: the binding signal turned out to be 0.396 E-score.

Regarding CTACCGTA, the binding signal amounted to 0.0158 E-score.

For CCAAGAGC, the binding signal amounted to 0.019 E-score.

As for ACCAATGC, the binding signal was -0.147 E-score.

AACGAGAG: the binding signal was determined as 0.112 E-score.

For AGTTGAGG, the binding signal was -0.125 E-score.

As for ATCGCTGA, the binding signal is 0.226 E-score.

As to AACCCTCT, the binding signal was -0.271 E-score.

With AACAGTGG, the binding signal was -0.122 E-score.

For CCTAGGCA, the binding signal is -0.122 E-score.

On to CGAAAGTC, for which the binding signal was -0.141 E-score.

On to AGGGACCC, for which the binding signal is -0.23 E-score.

As to CTGAAGGA, the binding signal is -0.172 E-score.

Regarding CGACAGCG, the binding signal is -0.229 E-score.

Take TAGTTGGA: the binding signal amounted to 0.0826 E-score.

Turning to CGAGGGTA, the binding signal amounted to 0.159 E-score.

For CCAGCTAG, the binding signal was 0.0693 E-score.

GTATAAAC: the binding signal is 0.185 E-score.

Regarding ACTCCGAG, the binding signal was determined as 0.0884 E-score.

Turning to GACGCGAC, the binding signal is -0.0517 E-score.

For the sequence AGTGTAGC, the binding signal was -0.0419 E-score.

As to CGTACATA, the binding signal amounted to 0.021 E-score.

For ATTGCTGC, the binding signal was -0.149 E-score.

CAGACTTC: the binding signal was -0.328 E-score.

AATTGGCG: the binding signal is -0.164 E-score.

Take CGGACGAA: the binding signal amounted to 0.0369 E-score.

For CGAGCGGC, the binding signal is -0.213 E-score.

Consider GCATTGAA, for which the binding signal is -0.137 E-score.

For CCGCTCCC, the binding signal is -0.132 E-score.

For CGTCCCGA, the binding signal was -0.197 E-score.

As for CACCCCCA, the binding signal turned out to be 0.171 E-score.

On to GTTCCAAA, for which the binding signal is -0.162 E-score.

ATTACTGA: the binding signal was found to be 0.127 E-score.

Consider CATCTGGA, for which the binding signal was determined as 0.188 E-score.

Consider GACCAAGA, for which the binding signal was -0.0376 E-score.

As for CAATATGG, the binding signal was determined as 0.225 E-score.

In the case of CTCGCAAC, the binding signal is -0.0352 E-score.

As to CAACCCAA, the binding signal stood at 0.00694 E-score.

For the sequence AATGCTGT, the binding signal was -0.208 E-score.

On to ATGGACGG, for which the binding signal is 0.0653 E-score.

On to CGAAAGGA, for which the binding signal is -0.0136 E-score.

For the sequence GTTCCGAA, the binding signal was -0.154 E-score.

Take GCTCCAAA: the binding signal was -0.303 E-score.

As to AAATATAA, the binding signal was -0.132 E-score.

For the sequence CGATCCCG, the binding signal stood at 0.332 E-score.

Regarding CAGCTATG, the binding signal is -0.0902 E-score.

With GTAAATCA, the binding signal was -0.138 E-score.

Take CTGGTATC: the binding signal is 0.45 E-score.

As for GCGAAAGA, the binding signal was -0.231 E-score.

For the sequence AAAGGAGT, the binding signal is -0.158 E-score.

Take CGTGGGAC: the binding signal is -0.126 E-score.

Consider AAGAACGC, for which the binding signal is -0.138 E-score.

Take TGAACCAA: the binding signal is -0.0993 E-score.

With GGCAGTCA, the binding signal is -0.161 E-score.

On to CTCCCCCC, for which the binding signal was -0.131 E-score.

On to GGATGCCA, for which the binding signal came to 0.102 E-score.

Regarding GTTCCGTA, the binding signal is -0.0109 E-score.

As for GGCGCTAC, the binding signal was -0.268 E-score.

In the case of AAGGTAGC, the binding signal was -0.163 E-score.

Take AGCTTACC: the binding signal was -0.0453 E-score.

Turning to ATCCGCGA, the binding signal was 0.259 E-score.

Consider ACACCTCG, for which the binding signal came out at 0.301 E-score.

With CTAATTTA, the binding signal was -0.16 E-score.

In the case of AGAAAATG, the binding signal is -0.196 E-score.

With ACACACCC, the binding signal is 0.0977 E-score.

Regarding CCCAGTAC, the binding signal is -0.041 E-score.

On to ACCTGGTA, for which the binding signal is -0.0609 E-score.

Consider ATTACAAA, for which the binding signal is -0.0962 E-score.

As for TCGACGAA, the binding signal was -0.141 E-score.

For the sequence AATTGCAA, the binding signal is -0.25 E-score.

Take ACCTGCAC: the binding signal is -0.13 E-score.

In the case of CAATCCTA, the binding signal worked out at 0.0477 E-score.

As to AATCTCGG, the binding signal worked out at 0.0417 E-score.

On to CGGTAGAC, for which the binding signal was -0.0586 E-score.

For CTATACAC, the binding signal is 0.255 E-score.

Regarding GGCCACCA, the binding signal was -0.123 E-score.

With ATGCATTG, the binding signal is -0.0834 E-score.

GATAGGAA: the binding signal turned out to be 0.114 E-score.

Take AAAAGCCC: the binding signal was -0.315 E-score.

CGGAAAAC: the binding signal is -0.227 E-score.

For GGCTGAAA, the binding signal is -0.0765 E-score.

As for GAAGAGGA, the binding signal was -0.211 E-score.

For ACATATTC, the binding signal stood at 0.0898 E-score.

With AGGGAAGG, the binding signal was -0.0483 E-score.

Regarding AAACTTCT, the binding signal is -0.258 E-score.

Turning to AGCTCACC, the binding signal was 0.00873 E-score.

Take CAGAGAGC: the binding signal was -0.142 E-score.

As for AGCGAGTA, the binding signal stood at 0.0653 E-score.

As to CAGCCGGG, the binding signal was -0.0367 E-score.

Regarding AAGGTAAT, the binding signal is -0.0709 E-score.

As to GGTATAAA, the binding signal stood at 0.286 E-score.

For AAGTCTCT, the binding signal is -0.333 E-score.

Take ATTTTCTA: the binding signal is -0.15 E-score.

Consider AGTTGGCA, for which the binding signal was -0.225 E-score.

For TCCTCTCA, the binding signal is 0.0399 E-score.

CTCTTGCA: the binding signal was -0.0132 E-score.

With AACGGATT, the binding signal came to 0.204 E-score.

On to CACGCTGA, for which the binding signal was -0.047 E-score.

Turning to ACCTTAAT, the binding signal turned out to be 0.152 E-score.

Consider ATACTAAG, for which the binding signal was determined as 0.209 E-score.

CAAGCTTG: the binding signal is -0.359 E-score.

AGAACAAT: the binding signal stood at 0.0539 E-score.

Consider CCGGGTAA, for which the binding signal worked out at 0.113 E-score.

Consider AACATCTA, for which the binding signal is -0.142 E-score.

Consider GTCGTCAA, for which the binding signal was -0.044 E-score.

Take AAGCTGGC: the binding signal is -0.171 E-score.

With AAAGAGAC, the binding signal was found to be 0.0298 E-score.

For the sequence CCATTGCG, the binding signal was -0.00545 E-score.

In the case of AGTCTGCG, the binding signal is -0.187 E-score.

For the sequence AGGGATGC, the binding signal was -0.0623 E-score.

Take TCGCCGAA: the binding signal was -0.0857 E-score.

As for CTAATCTC, the binding signal is 0.175 E-score.

With ACGGAGTA, the binding signal is 0.101 E-score.

ATGGTGCG: the binding signal was -0.167 E-score.

With CGTTGTGC, the binding signal is -0.0905 E-score.
